Over roughly 33,000 sequences, “E-score (-0.5 to 0.5)” has its median near -0.035; the highest 2% begin near 0.34. This is one part of the list.
molecular target: T1, Mot3 (UniProt P54785); assay: PBM E-score (8-mer binding enrichment) (E-score (-0.5 to 0.5)); higher = stronger / more preferred TF binding; most listed sequences are background and not binding sites; conditions: protein concentration: 200 nM; construct: GST-full length
T1 sequence: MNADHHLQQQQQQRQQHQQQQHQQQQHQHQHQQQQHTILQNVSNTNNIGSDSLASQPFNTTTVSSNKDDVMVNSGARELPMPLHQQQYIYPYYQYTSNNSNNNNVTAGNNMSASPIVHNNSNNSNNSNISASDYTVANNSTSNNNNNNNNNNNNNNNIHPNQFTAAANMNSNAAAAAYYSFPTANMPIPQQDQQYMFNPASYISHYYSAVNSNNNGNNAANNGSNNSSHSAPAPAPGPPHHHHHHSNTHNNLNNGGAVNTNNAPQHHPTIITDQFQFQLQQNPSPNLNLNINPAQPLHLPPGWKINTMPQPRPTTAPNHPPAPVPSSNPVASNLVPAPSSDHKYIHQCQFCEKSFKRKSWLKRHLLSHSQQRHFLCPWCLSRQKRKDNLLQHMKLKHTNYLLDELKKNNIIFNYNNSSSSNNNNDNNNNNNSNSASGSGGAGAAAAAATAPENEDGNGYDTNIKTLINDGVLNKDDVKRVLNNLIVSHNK
How it was run: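 The E-score, a modified Wilcoxon-Mann-Whitney statistic, was computed by the Universal PBM Analysis Suite for every ungapped eight-base word pooled with its reverse complement. Scans behind it were normalised with masliner after bound GST-tagged yeast transcription factors were detected with fluorescent anti-GST. The proteins, at about 100-200 nM, had been applied to universal all-10-mer Agilent arrays made double-stranded by primer extension.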

| Sequence | PBM E-score |
| --- | --- |
| AGGAAGCC | -0.161 |
| CGACCCAC | -0.213 |
| AATCTTCA | 0.00303 |
| CAATGGCA | -0.0685 |
| AGCTATGC | -0.0718 |
| AACTATCC | -0.344 |
| AATTCTGT | -0.158 |
| GCCGAACC | -0.203 |
| GGTGGGAC | -0.176 |
| AACAATTA | 0.185 |
| CTACTTAC | 0.161 |
| CATCTGAC | -0.268 |
| ACTATTTA | 0.167 |
| AATCCGCG | 0.144 |
| CGATCGAA | -0.156 |
| ATGGCGCA | -0.186 |
| AGCCGGGG | -0.393 |
| CCTACCCG | 0.0449 |
| GAGTAGTA | -0.00293 |
| CCAGTACC | -0.179 |
| CACATAGC | 0.0621 |
| GCGTTTCA | 0.0563 |
| CCCTTGGA | -0.159 |
| CCAGCGTA | -0.0545 |
| ACTGAAAG | 0.0927 |

| Sequence | PBM E-score |
| --- | --- |
| GGTGTCCA | -0.237 |
| CTACGCAC | 0.122 |
| ATTACACC | 0.299 |
| CGTTACAC | 0.274 |
| CGTTCCTC | 0.167 |
| AACCGAGG | -0.172 |
| CACTGTTA | 0.0232 |
| CCTAACGC | 0.158 |
| CATCAGTA | 0.00031 |
| AGCTGAAT | -0.0351 |
| AACCGCAG | -0.189 |
| CATCATGA | 0.051 |
| ACGACTCC | -0.121 |
| ACCGCTGC | -0.0644 |
| CATTGTAA | 0.303 |
| ATAACTTA | 0.174 |
| AGTGGAAT | -0.108 |
| CGACTGAG | -0.274 |
| CATTAACA | 0.299 |
| GAGTTGTA | 0.124 |
| CCCCGCCG | -0.245 |
| CTCGCTTA | -0.127 |
| ATCTGCCA | -0.14 |
| ATATGGTC | -0.0461 |
| CCACGCAC | -0.152 |

| Sequence | PBM E-score |
| --- | --- |
| AAATTGTT | 0.00218 |
| ACAGCTGC | 0.00393 |
| ATGATTGA | 0.0645 |
| ATAACCTG | 0.0318 |
| ACCACACA | 0.219 |
| CTGACCTA | -0.146 |
| GGAGGGCC | -0.359 |
| AATCGCGA | -0.104 |
| CCGATCCG | -0.25 |
| TATGTCAA | 0.363 |
| AGACGGCA | -0.122 |
| ATGGCGCC | -0.126 |
| CCATAAGC | -0.25 |
| AAGTCGCA | 0.0858 |
| CCTATCGC | -0.0459 |
| ATACCTCG | 0.121 |
| AAGCGGGC | -0.329 |
| ACGAGCCA | -0.0579 |
| GATTGACC | -0.0422 |
| AGCCATCG | -0.203 |
| GACTGATC | -0.0852 |
| AAGCCCGC | -0.15 |
| GCCACAAC | -0.0631 |
| CCACAGGC | 0.194 |
| AGAGCGCC | 0.0468 |

| Sequence | PBM E-score |
| --- | --- |
| AGTACCGA | -0.209 |
| AGACATTC | 0.0131 |
| CCAAAGAA | 0.142 |
| CAGACCAG | -0.199 |
| CCTGTGCA | 0.0831 |
| AGTCTAAT | 0.0256 |
| GATTGACA | 0.205 |
| AGGGTCTG | -0.219 |
| AAGAGAGC | -0.0425 |
| CCGGTAAA | -0.0959 |
| GGCAAGGA | 0.27 |
| CAGCACTG | -0.289 |
| CACTGTAG | 0.127 |
| ATAGATAA | -0.0938 |
| ACTCGACC | -0.0893 |
| GCCAGCAA | -0.0709 |
| GGCGGACC | -0.372 |
| CCCGTTGA | -0.205 |
| CTAAACAC | 0.241 |
| ACGACTAA | -0.0575 |
| AAAGTAAG | 0.0328 |
| CATCGGGC | -0.282 |
| TGGATACA | 0.12 |
| ACCGCCCT | -0.196 |
| CAGATTGC | -0.0432 |

| Sequence | PBM E-score |
| --- | --- |
| GGCGGGAA | -0.121 |
| CTCATCCC | -0.188 |
| ACGACTAT | 0.0582 |
| CACCTCAG | -0.0765 |
| CGTGAGGC | -0.0726 |
| CAAGGCCA | 0.0593 |
| AGGGATCG | -0.125 |
| CATCGATA | 0.0964 |
| GGCGCCAC | -0.253 |
| CAGCTTCC | -0.155 |
| GTGGGAAC | -0.262 |
| CGCCGACG | -0.0725 |
| ACACCCCC | -0.0289 |
| GATTCCGC | -0.18 |
| TCCAAGCA | 0.0974 |
| CACGGTCG | -0.215 |
| TCTAGGCA | 0.458 |
| CTGTCTAA | 0.0585 |
| CGCGAGGA | -0.201 |
| ACTTGTAA | 0.28 |
| AAATAAGC | -0.0442 |
| GCTGGTCC | -0.283 |
| AATATGTC | 0.147 |
| CGGTACCG | -0.156 |
| ACGGTGGG | -0.145 |

| Sequence | PBM E-score |
| --- | --- |
| ATCGTAAC | 0.0819 |
| GGCTTTTA | 0.0764 |
| ATTTAGTC | 0.0594 |
| GCCAACTA | -0.00052 |
| CCCGTGTC | 0.082 |
| CAGAGGAA | 0.0456 |
| TGTCGTAA | 0.211 |
| CCATTCGC | -0.267 |
| CGAAAAGC | -0.23 |
| CTTGGGGA | -0.0853 |
| ACTCGCAT | -0.117 |
| CACATGCC | 0.178 |
| CCGTAAGG | -0.00957 |
| GTTAGATA | 0.13 |
| ACTAGGCC | -0.141 |
| TGACAACA | 0.194 |
| CACGCGAG | 0.014 |
| GAGCAGAC | -0.249 |
| AGAGGTGG | -0.124 |
| AGTAAAGG | 0.258 |
| GAACCTCC | -0.127 |
| GGTGACGA | -0.103 |
| CAGCTCCC | -0.288 |
| AATATCTA | 0.0219 |
| ATTAAACA | 0.179 |

| Sequence | PBM E-score |
| --- | --- |
| ATGAACGA | -0.0267 |
| TGACCAAA | 0.017 |
| AATAATCT | -0.0232 |
| ATTAGGCG | -0.0797 |
| GGAACCTA | 0.293 |
| CGCCTACG | 0.125 |
| ACTGAATG | -0.0384 |
| TTCAGGAA | 0.337 |
| CTTGCCAA | -0.0295 |
| AAAGACCA | -0.203 |
| ATGACATC | 0.05 |
| CCCTAGGG | -0.328 |
| CACCTCAA | 0.0603 |
| AGAAAGAT | 0.111 |
| CTTCCTTC | -0.227 |
| CATACTTC | -0.112 |
| GTAACCAC | 0.119 |
| TGCGGCAA | 0.0464 |
| GCCCACAC | -0.212 |
| AATAGGGG | -0.178 |
| CGCAGGAG | -0.0652 |
| ACGGTAGT | -0.173 |
